# Experimental data: publication PMC11995724, “Antibiotic target discovery by integrated phenotypic and activity-based profiling of electrophilic fragments” (Cell chemical biology, 2025)
# In all, about 3,200 compounds went through this assay and about 110 (3.4%) showed an effect of 50% or more. Some of the results follow.
# Tested on: T1, V. cholerae SAD30
# T1 construct: SAD30
# Set-up: species or system S. aureus MSSA476 (TSB) or V. cholerae SAD30 (LB); 384-well bacterial growth screen at 25 uM, OD600 relative to DMSO control
# Details: relative growth, OD600, LB; 25 µM; inhibitor
row,SMILES,% of control remaining
1,"N#CC(=Cc1ccco1)C(=O)Nc1cccc(Cn2cccn2)c1 [8-I20, 2-cyano-3-(furan-2-yl)-N-{3-[(1H-pyrazol-1-yl)methyl]phenyl}prop-2-enamide]",69.4086%
2,"Cc1noc(C)c1COC1CCN(C(=O)C(C)Cl)C1 (stereo not drawn) [7-O14, 2-chloro-1-{3-[(3,5-dimethyl-1,2-oxazol-4-yl)methoxy]pyrrolidin-1-yl}propan-1-one]",78.3744%
3,"CSc1ccc(C=C(C#N)C(=O)N2CCCC2)cc1 [8-I11, 3-[4-(methylsulfanyl)phenyl]-2-(pyrrolidine-1-carbonyl)prop-2-enenitrile]",67.5051%
4,"Cl.O=C(CCl)N1CCN(CC=Cc2ccccc2)CC1 [4-F16, 2-chloro-1-[4-(3-phenylprop-2-en-1-yl)piperazin-1-yl]ethan-1-one hydrochloride]",93.6813%
5,"CSc1ccccc1NC(=O)C(C)Cl (stereo not drawn) [4-M12, 2-chloro-N-[2-(methylsulfanyl)phenyl]propanamide]",94.8889%
6,"O=C(CCl)N1CCCCC1c1nc(-c2ccccn2)cs1 (stereo not drawn) [5-G18, 2-chloro-1-{2-[4-(pyridin-2-yl)-1,3-thiazol-2-yl]piperidin-1-yl}ethan-1-one]",93.8111%
7,"N#CC(C(=O)CCl)=C1NC(=O)c2ccccc2N1 [10-P14, 4-chloro-3-oxo-2-(4-oxo-1,2,3,4-tetrahydroquinazolin-2-ylidene)butanenitrile]",98.9675%
8,"Cc1nc2ccccc2n(CCCN(C)C(=O)CCl)c1=O [6-D04, 2-chloro-N-methyl-N-[3-(3-methyl-2-oxo-1,2-dihydroquinoxalin-1-yl)propyl]acetamide]",95.7058%
9,"C=CC(=O)NCc1ccc(C(=O)NC2CC(=O)N(C)C2)cc1 (stereo not drawn) [3-N22, N-(1-methyl-5-oxopyrrolidin-3-yl)-4-[(prop-2-enamido)methyl]benzamide]",105.675%
10,"COc1cc(C=C(C#N)C(=O)Nc2nccs2)cc(OC)c1 [9-J03, 2-cyano-3-(3,5-dimethoxyphenyl)-N-(1,3-thiazol-2-yl)prop-2-enamide]",99.3202%
11,"C=CC(=O)N1CCn2nccc21 [1-P16, 1-{1H,2H,3H-pyrazolo[1,5-a]imidazol-1-yl}prop-2-en-1-one]",119.235%
12,"CCC(C)C1CN(Cc2ccc(C)nc2)CCN1C(=O)C(C)Cl (stereo not drawn) [7-O16, 1-[2-(butan-2-yl)-4-[(6-methylpyridin-3-yl)methyl]piperazin-1-yl]-2-chloropropan-1-one]",70.9731%
